# Results from the supplement of paper PMC11417369.
# The list shows a part of the results.
# Tested on: PfAP2-HC AP2 domain (GST-tagged)
# Test: gcPBM binding intensity (ln(normalized median fluorescence intensity)); higher = stronger DNA binding
# Method in brief: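 GST-fused DNA-binding domains of P. falciparum, expressed in E. coli, were applied at about 25 μg on average for 1 h to an Agilent 4 × 180k array of primer-extended double-stranded 36-bp intergenic genomic probes and negative controls. Binding intensity is the highest Masliner-normalised natural-log median intensity across replicate spots of either probe orientation, measured with Alexa488 anti-GST antibody and a 488 nm scan.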
row,Sequence,gcPBM binding intensity (ln)
1,TATTTTTTAAAAATGGGTACACATAAATAAATAAAT [XGTACX_site7643],9.4
2,ATCTAAACAAATAATACACACAATAAAATAGGAAGA [CACACA_site4072],10.1
3,TGTGAATAAATAAGCACACATAAACCCATATATAAA [CACACA_site4103],10.1
4,TTCAAAATAAAAAATTCACACACATATATATATATA [CACACA_site8653],9.83
5,TTATAATCAATGAATACACACATATATTTCATTAAT [CACACA_site5909],9.78
6,TAATAATAGAGACACACACACATAGACATATAAATA [CACACA_site6729],10.9
7,ATCTATGAAAAAGGTACATGCAATAAAGAAACATAT [TGCATGCA_site805],9.72
8,TTATACTATTTTTATACATGCATTTCTATATATTTT [TGCATGCA_site316],9.9
9,ATTTATTAAATTTATAGTACTCAAAGATTTTTATTT [XGTACX_site6661],9.51
10,AAATAAAACAATTAACGTACAAGCATATATATATAT [XGTACX_site8508],9.71
11,TATGTATAATTATTTTGTACTTATTAAATTTTTTTT [XGTACX_site5413],9.53
12,TATATATATATTATATGTACACAAGGAAATATGCAT [XGTACX_site5637],9.82
13,AAATAAAAAAAAATAGCACACATAAATATATTATAT [CACACA_site8155],9.81
14,CTAGGTATGCTTTAAACATGCAAAAATACAAATTAC [TGCATGCA_site239],9.64
15,ATATATAAATATATTTGTACATATAATATGTATTAT [XGTACX_site8820],9.69
16,TTTTGTTATAATAAAGTGCATTTAGTCGGGTTACAA [GTGCAC_site9779],9.43
17,AAATATTATAAAAAGGTGCATTTTTATTATATGAGT,9.65
18,AATTTAAAAAAAATCACACACAGAAAAAAAAAAAAA [CACACA_site2322],9.83
19,ATATATGTTTTTATATGTACTTATAATGTGTGTATA [XGTACX_site5165],9.98

row,Sequence,gcPBM binding intensity (ln)
1,AAGGAAAACAATAGGTGTACCAAACGTCCTAGGAAC [XGTACX_site5732],10.2
2,TTTCTTCATTTTTTCACACATAAGAAAATATAATCA [CACACA_site4275],9.49
3,TAAAAAAATAAAATTACACACATATATAAATATATA [CACACA_site2620],9.67
4,AAAAAAGCAATATGATGTACATTTACTTTGTGAAAG [XGTACX_site4450],9.64
5,TATATCCACATTTTTAGTACTTAAAAATAAATAAAC [XGTACX_site3826],9.52
6,TTCTGACCAATGCTATAAAATAATACAAAAGAAAAA [GTGCAC_negctrl_site3],9.38
7,TGAAGAGGAAACAAACAAAATGAATAATTAAAAAGG [CACACA_negctrl_site1601],9.58
8,TATATATAAATATGCTGTACGTTTTAATACGTTAAG [XGTACX_site2378],9.41
9,CTCAAAGGAATATTCACACATAAATTATAGACTACA [CACACA_site6050],9.58
10,TAATTATATTCACTTGCTATATAAATTATATATATT [CACACA_negctrl_site526],9.64
11,ATACACACTCAAAAAAGTACTTAACTACATGAATTG [XGTACX_site6366],9.83
12,GTATATATATATATATGCAAATGTATAAATCTACAT [CACACA_negctrl_site546],9.72
13,AAGAAAAAAATATATGTTTATTTACTTTAATAATTT [TGCATGCA_negctrl_site168],9.41
14,AAAAAAAGTTATATTACACACTTTATTCGTTAACTT [CACACA_site3013],9.71
15,ATATTTATGAAGTTCACACATATATATATATATATA [CACACA_site5954],9.58
16,ACAACAATATTTGAATGTACTCTATTTTCGTTGTTC [XGTACX_site593],9.74
17,GATAAATTAAAACACACACACATATATATATATATA [CACACA_site3962],10.2
18,AAAAAAATAGTCTTCTTGCACTTTTTAATTTATTTT,9.6
19,TTATAATAAAATGAATATATATAATTTAAAATATTT [CACACA_negctrl_site1651],9.48

row,Sequence,gcPBM binding intensity (ln)
1,TACATATATAAAAAAACACACACATATATATATATA [CACACA_site8315],9.93
2,TGTATAATAAGGAAGAGTACAAGTAAATACACACAT [XGTACX_site2084],10.2
3,TGTATTTATAGACACACACACTTTCTTTTTTTAAGA [CACACA_site7010],9.96
4,AACAATTAGAACTTTGCACACTTCTATATATTTTGT [CACACA_site674],10
5,TATATATAAAATGTATGTACATATTTATTTATATAG [XGTACX_site657],9.58
6,AAGTGAAATAAAATATGTACATATATGTATATATAA [XGTACX_site4473],9.92
7,TTTTTTCTTCGTGTATTAAGTCACAATAGGAAAAAA [GTGCAC_negctrl_site644],9.16
8,AAAAAAAAAGAATGTGAACACACACCGTGAATATAA [CACACA_site8342],9.96
9,TATATATATAACATTGTACACACAAAGAAATAATAT [CACACA_site8998],9.96
10,TTGTATTAATAATTTTTTATATTATAGTTTATAATA [GTGCAC_negctrl_site130],9.44
11,ATCGGTATATTATTACATGAATAAACTTACACACAC [TGCATGCA_negctrl_site21],10.1
12,TTACAAAACACTTATACACACATATATATATATATA [CACACA_site2716],9.74
13,TAATATATTAAAAATAGTACATAAGAAAAATAAGTA [XGTACX_site7957],9.87
14,AAAACTATATTAATGTGTACACATCAAAATATTAAT [XGTACX_site6767],9.79
15,CAAAATTATCAGAATCGTACATTTTTAACATATAAT [XGTACX_site7909],9.51
16,ATTATAAATATCAGTGCACACATTTCTACGCAAAGT [CACACA_site4420],9.91
17,TATGTAAAATGTGTTTGTACTTATTTATTATATAAA [XGTACX_site2816],9.43
18,AAGGAGCCTATGAACACACACATGTACAGATATTAA [CACACA_site6107],9.96
